# Measurements taken from the supplement of paper PMC10037445.
# Several values for one entry are separate records, joined by “and”; a condition that tells them apart may be missing. Equal values may be shown once. Over roughly 2,900 compounds, “NF-kB SEAP reporter activity, fold change vs agonist alone” has its median near 0.99; the highest 2% begin near 2.6. This is one part of the list.
# Assays:
# RAW-Dual [1] = experiment: NF-kB SEAP reporter activity, fold change vs agonist alone; higher = enhanced NF-kB activity
# How it was run: (§1)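 Reporter activity is given as fold change relative to agonist-alone wells. To measure it, 50 nL of library stock was pin-tooled onto RAW-Dual macrophages (50,000 cells/well, DMEM, 384-well plates), a PRR agonist followed 1 h later, and cells stayed at 37 °C, 5% CO2. Twenty hours on, supernatant was assayed for IRF (QuantiLuc luminescence) and NF-κB (QuantiBlue, 620 nm absorbance), and wells under 70% of agonist-control IncuCyte confluency in both mask sets were marked cytotoxic.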
# RAW-Dual [2] = experiment: NF-kB SEAP reporter activity, fold change vs agonist alone; cytotoxicity flag (confluency mask): not cytotoxic; higher = enhanced NF-kB activity
# How it was run: as §1
# RAW-Dual [3] = experiment: NF-kB SEAP reporter activity, fold change vs agonist alone; cytotoxicity flag (confluency mask): cytotoxic (confluency <70% of control); higher = enhanced NF-kB activity
# How it was run: as §1
# [4] = library stock concentration (final ~1000-fold dilution): 10 mM, cytotoxicity flag (confluency mask): not cytotoxic, agonist: Imiquimod (TLR7) […]
# [5] = library stock concentration (final ~1000-fold dilution): 10 mM, cytotoxicity flag (confluency mask): not cytotoxic, agonist: MPLA (TLR4) […]
# [6] = agonist: ODN 1826 (TLR9) 0.5 ug/mL
# [7] = agonist: Pam2CSK4 (TLR2/6) 0.1 ug/mL
# [8] = agonist: Pam3CSK4 (TLR2/1) 0.1 ug/mL
smiles,measurement,setting,value
CCCc1nc(C)c2c(=O)[nH]c(-c3cc(S(=O)(=O)N4CCN(CC)CC4)ccc3OCC)nn12.Cl.O.O.O,NF-kB SEAP reporter activity,RAW-Dual [1]; [4],1.07
same,NF-kB SEAP reporter activity,RAW-Dual [1]; [5],1.05
CCCc1nc(C)c2c(=O)[nH]c(-c3cc(S(=O)(=O)N4CCN(CC)CC4)ccc3OCC)nn12.Cl.O.O.O (library stock concentration (final ~1000-fold dilution): 10 mM),NF-kB SEAP reporter activity,RAW-Dual [2]; agonist: LPS (TLR4) 0.1 ug/mL,1.37
same,NF-kB SEAP reporter activity,RAW-Dual [2]; [6],0.93
same,NF-kB SEAP reporter activity,RAW-Dual [2]; [7],0.912
same,NF-kB SEAP reporter activity,RAW-Dual [2]; [8],1.2
C=Cc1c(C)c2cc3nc(cc4[nH]c(cc5nc(cc1[nH]2)C(C)=C5CCC(=O)O)c(CCC(=O)OC)c4C)C1(C)C3=CC=C(C(=O)OC)C1C(=O)OC (stereo unspecified) (library stock concentration (final ~1000-fold dilution): 10 mM),NF-kB SEAP reporter activity,RAW-Dual [3]; agonist: LPS (TLR4) 0.1 ug/mL,0.243
same,NF-kB SEAP reporter activity,RAW-Dual [3]; [6],0.233
same,NF-kB SEAP reporter activity,RAW-Dual [3]; [7],0.193
same,NF-kB SEAP reporter activity,RAW-Dual [3]; [8],0.191
C=Cc1c(C)c2cc3nc(cc4[nH]c(cc5nc(cc1[nH]2)C(C)=C5CCC(=O)O)c(CCC(=O)OC)c4C)C1(C)C3=CC=C(C(=O)OC)C1C(=O)OC (stereo unspecified),NF-kB SEAP reporter activity,"RAW-Dual [1]; library stock concentration (final ~1000-fold dilution): 10 mM, cytotoxicity flag (confluency mask): cytotoxic (confluency <70% of control), agonist: Imiquimod (TLR7) […]",0.297
same,NF-kB SEAP reporter activity,"RAW-Dual [1]; library stock concentration (final ~1000-fold dilution): 10 mM, cytotoxicity flag (confluency mask): cytotoxic (confluency <70% of control), agonist: MPLA (TLR4) […]",0.349
NC(=O)Nc1sc(-c2ccc(F)cc2)cc1C(N)=O (library stock concentration (final ~1000-fold dilution): 10 mM),NF-kB SEAP reporter activity,RAW-Dual [3]; agonist: LPS (TLR4) 0.1 ug/mL,0.276 and 0.305
same,NF-kB SEAP reporter activity,RAW-Dual [3]; [6],0.188 and 0.21
same,NF-kB SEAP reporter activity,RAW-Dual [3]; [7],0.0797 and 0.0735
same,NF-kB SEAP reporter activity,RAW-Dual [3]; [8],0.139 and 0.173
C/C=C1/C2C=C(C)CC1(N)c1ccc(=O)[nH]c1C2 (stereo unspecified) (library stock concentration (final ~1000-fold dilution): 2 mM),NF-kB SEAP reporter activity,RAW-Dual [2]; agonist: LPS (TLR4) 0.1 ug/mL,1.33
same,NF-kB SEAP reporter activity,RAW-Dual [2]; [6],1.01
same,NF-kB SEAP reporter activity,RAW-Dual [2]; [7],1.14
same,NF-kB SEAP reporter activity,RAW-Dual [2]; [8],1.01
C/C=C1/C2C=C(C)CC1(N)c1ccc(=O)[nH]c1C2 (stereo unspecified),NF-kB SEAP reporter activity,"RAW-Dual [1]; library stock concentration (final ~1000-fold dilution): 2 mM, cytotoxicity flag (confluency mask): not cytotoxic, agonist: Imiquimod (TLR7) […]",0.822
same,NF-kB SEAP reporter activity,"RAW-Dual [1]; library stock concentration (final ~1000-fold dilution): 2 mM, cytotoxicity flag (confluency mask): not cytotoxic, agonist: MPLA (TLR4) […]",1.1
CCCCCCCC(=O)NC(CN1CCCC1)C(O)c1ccc2c(c1)OCCO2 (stereo unspecified),NF-kB SEAP reporter activity,RAW-Dual [1]; [4],1.08
same,NF-kB SEAP reporter activity,RAW-Dual [1]; [5],1.24
CCCCCCCC(=O)NC(CN1CCCC1)C(O)c1ccc2c(c1)OCCO2 (stereo unspecified) (library stock concentration (final ~1000-fold dilution): 10 mM),NF-kB SEAP reporter activity,RAW-Dual [2]; agonist: LPS (TLR4) 0.1 ug/mL,0.923
same,NF-kB SEAP reporter activity,RAW-Dual [2]; [6],0.99
same,NF-kB SEAP reporter activity,RAW-Dual [2]; [7],1.01
same,NF-kB SEAP reporter activity,RAW-Dual [2]; [8],1.02
C#CCNC1CCc2ccccc21.CS(=O)(=O)O (stereo unspecified) (library stock concentration (final ~1000-fold dilution): 10 mM),NF-kB SEAP reporter activity,RAW-Dual [2]; agonist: LPS (TLR4) 0.1 ug/mL,1.32
same,NF-kB SEAP reporter activity,RAW-Dual [2]; [6],0.944
same,NF-kB SEAP reporter activity,RAW-Dual [2]; [7],0.701
same,NF-kB SEAP reporter activity,RAW-Dual [2]; [8],1.06
C#CCNC1CCc2ccccc21.CS(=O)(=O)O (stereo unspecified),NF-kB SEAP reporter activity,RAW-Dual [1]; [4],0.895
same,NF-kB SEAP reporter activity,RAW-Dual [1]; [5],0.95
C[C@@H]1O[C@@H](OC[C@H]2O[C@@H](Oc3c(-c4ccc(O)c(O)c4)oc4cc(O)cc(O)c4c3=O)[C@H](O)[C@@H](O)[C@@H]2O)[C@H](O)[C@H](O)[C@H]1O,NF-kB SEAP reporter activity,RAW-Dual [1]; [4],1.23
same,NF-kB SEAP reporter activity,RAW-Dual [1]; [5],1.23
C[C@@H]1O[C@@H](OC[C@H]2O[C@@H](Oc3c(-c4ccc(O)c(O)c4)oc4cc(O)cc(O)c4c3=O)[C@H](O)[C@@H](O)[C@@H]2O)[C@H](O)[C@H](O)[C@H]1O (library stock concentration (final ~1000-fold dilution): 10 mM),NF-kB SEAP reporter activity,RAW-Dual [2]; agonist: LPS (TLR4) 0.1 ug/mL,0.759
same,NF-kB SEAP reporter activity,RAW-Dual [2]; [6],0.686
same,NF-kB SEAP reporter activity,RAW-Dual [2]; [7],0.365
same,NF-kB SEAP reporter activity,RAW-Dual [2]; [8],0.563
CCn1cc(C(=O)O)c(=O)c2cc(F)c(N3CCN(C)CC3)cc21.CS(=O)(=O)O,NF-kB SEAP reporter activity,RAW-Dual [1]; [4],0.916
same,NF-kB SEAP reporter activity,RAW-Dual [1]; [5],0.878
CCn1cc(C(=O)O)c(=O)c2cc(F)c(N3CCN(C)CC3)cc21.CS(=O)(=O)O (library stock concentration (final ~1000-fold dilution): 10 mM),NF-kB SEAP reporter activity,RAW-Dual [2]; agonist: LPS (TLR4) 0.1 ug/mL,0.962
same,NF-kB SEAP reporter activity,RAW-Dual [2]; [6],1.03
same,NF-kB SEAP reporter activity,RAW-Dual [2]; [7],1.11
same,NF-kB SEAP reporter activity,RAW-Dual [2]; [8],1.12
